Measurements as given in the supplement of paper PMC3334620.
Whole data set: some 33,000 sequences, median “E-score (-0.5 to 0.5)” near -0.054, cut for the highest 2% near 0.35. The list shows a part of the results.

target: T1, Stb5 (UniProt P38699); assay: PBM E-score (8-mer binding enrichment) (E-score (-0.5 to 0.5)); higher = stronger / more preferred TF binding; most listed sequences are background and not binding sites; details: protein concentration: 200 nM; construct: GST-full length
T1 sequence: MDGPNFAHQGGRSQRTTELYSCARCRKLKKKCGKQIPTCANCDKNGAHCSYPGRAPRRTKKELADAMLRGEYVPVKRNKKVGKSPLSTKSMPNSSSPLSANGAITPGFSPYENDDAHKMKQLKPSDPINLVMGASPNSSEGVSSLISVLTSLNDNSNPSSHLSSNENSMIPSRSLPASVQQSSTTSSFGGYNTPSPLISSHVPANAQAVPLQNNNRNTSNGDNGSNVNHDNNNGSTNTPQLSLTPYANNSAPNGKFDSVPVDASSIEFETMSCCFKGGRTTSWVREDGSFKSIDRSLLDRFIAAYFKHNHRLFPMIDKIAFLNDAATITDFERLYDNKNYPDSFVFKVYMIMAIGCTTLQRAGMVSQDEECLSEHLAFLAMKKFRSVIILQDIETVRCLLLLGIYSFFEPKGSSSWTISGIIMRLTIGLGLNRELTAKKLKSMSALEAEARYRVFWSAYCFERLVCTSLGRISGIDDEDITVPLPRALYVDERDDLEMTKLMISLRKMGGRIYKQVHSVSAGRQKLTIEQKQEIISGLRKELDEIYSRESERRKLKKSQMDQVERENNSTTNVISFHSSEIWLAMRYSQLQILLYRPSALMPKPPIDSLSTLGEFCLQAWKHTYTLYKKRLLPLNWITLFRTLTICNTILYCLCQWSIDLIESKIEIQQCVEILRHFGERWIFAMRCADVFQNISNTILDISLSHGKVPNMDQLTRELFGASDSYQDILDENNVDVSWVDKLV
Summary of the method: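 Detection of bound protein used fluorescent anti-GST, with scans normalised by masliner. The proteins were GST-tagged yeast transcription factors applied at about 100-200 nM to universal all-10-mer Agilent arrays made double-stranded by primer extension. Each ungapped eight-base word, pooled with its reverse complement, was scored with an E-score from the Universal PBM Analysis Suite.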

Sequence	PBM E-score
CCATATCG	0.299
ACTAAGCC	0.0556
TAGATTGA	0.0223
CTACCTAC	-0.133
CACAGGTA	-0.341
CAAGCGGG	0.273
AACTACTT	-0.00769
GGGGTCAC	0.0259
AGAGGAGA	-0.194
CAACGAAC	0.079
AGAAATTA	0.0588
CTGCCGGC	0.242
GTGGAACA	-0.0734
CGATGGAC	0.0592
AATTCAAC	0.0401
GACTACGC	0.0477
ACTATCCG	0.0801
CTCCGGAA	0.186
ATATTTGG	-0.233
CCTACAGG	-0.0425
TCTTTCCA	0.0567
CCAGCCCG	0.0641
AAAGGTAA	-0.145
ATAACAAG	-0.0868
GGCAGTGA	0.0229

Sequence	PBM E-score
ACTTTCGA	-0.0843
GCGTACGC	0.116
AAAAGTTA	-0.0905
AATCGGCA	0.29
CAAAAGAG	-0.072
CTCACTGA	-0.18
GGGCAGAC	0.136
CACCGGCC	0.318
GCCGCGCA	0.29
ACTCAGGA	-0.0461
AAAACGTG	-0.181
AAGATCGG	0.352
GCGGTAAC	0.344
CTCCTTGC	-0.233
GGCCGAAA	0.0562
AACGAAGA	-0.0253
AAACGGTC	0.25
CCTATGGC	-0.11
AGAATGGG	-0.212
AGAGGTAA	0.0515
GATCCGAA	0.107
TATGATCA	-0.132
AGGGAAAC	-0.25
ATGGAACA	-0.314
CACTAAAA	-0.0274

Sequence	PBM E-score
CGTTAAAC	0.117
CCCTTAGC	-0.0196
AGGATCTA	-0.156
GGAAAAGA	-0.0868
ATTACGGA	0.222
GGCCGCAC	0.279
AATCCCGT	0.419
TCGTAACA	0.0574
GATGTAAA	0.0302
GGTCTCCA	-0.136
GAGTCTTA	-0.0843
CCTTGACG	-0.0945
AATTACGA	-0.0854
AGCCGCGC	0.173
AGAGCGTG	0.0544
CCATGACC	-0.0881
ATGCGAAA	-0.0503
CTTATCTA	-0.062
ACACAGGT	-0.204
ATAAGTAG	-0.13
AGTGGGAC	-0.0588
AGGTGGCC	-0.159
CACAAGGG	-0.104
AATGAAGA	-0.032
GGCCCGCA	0.182

Sequence	PBM E-score
CCTTCCAG	-0.22
AGATGCCA	-0.157
GGACACAC	0.152
CACTAGGG	-0.111
AGTACAAC	0.00707
ACTCAGGG	-0.296
CGAGCGCG	0.0684
CCTAGTTC	-0.174
CAATGCGG	0.211
AAGTATAG	-0.0456
TCTGGGAA	-0.163
AGCTACCT	-0.22
TATTTTCA	0.061
ACTCGTCG	-0.0463
AATCGACA	-0.233
ATTGCGAG	0.0852
CACACCAA	-0.119
GCCACCAA	-0.0163
ATGTCATA	-0.0939
CTGCTCCA	-0.294
TCGTCGAA	-0.364
AGCTTTTG	-0.139
GTTCTAGA	0.067
CTTCGGCC	0.0364
ATAGACAT	-0.197

Sequence	PBM E-score
GCATGACA	-0.191
GGAGACCC	-0.0507
GATTGCCA	-0.045
CTGCGTTA	-0.0105
AACCAAAT	-0.0785
ATCCACAG	-0.0451
ATTATGAG	-0.0683
AAAGTTGT	-0.027
AACGAGGC	-0.168
AGTAGGGG	-0.0527
AGTCTTCA	-0.227
GAGCAACC	-0.113
GGCTGTGA	-0.14
CGAACGGC	0.211
ATTGAATA	-0.0651
ATTAGACG	0.0365
CCAACGGG	0.266
CGGTATCA	0.364
AGAACATG	-0.149
GACGTCCC	-0.0902
AGGTCGGA	0.326
CATGTATC	-0.0223
GCCCTTCA	-0.0256
TGCTTAAA	-0.155
TAAACCAA	-0.106

Sequence	PBM E-score
ATTTACTC	0.0443
AGCGTAAT	-0.21
CGGCTGCC	-0.0572
GATTTAGC	0.126
TCCAGTCA	-0.134
AGGATGTG	-0.076
ACGGGCCG	0.194
AGGGGCGC	-0.0545
AAACTTTC	-0.0994
AAGGAGCC	-0.137
ACAGGCGT	-0.167
ACTTATAT	0.0338
ATCTTTAA	0.118
CTTTGATA	-0.114
AGGAGGAG	-0.286
CGGTGTTC	0.399
AAAGCCCC	0.246
CAAAAGAA	0.0049
CTCTGTGC	-0.255
CCATGCTC	-0.228
CTTGTCTC	-0.22
CAAGATTA	-0.103
CAAAGCAG	-0.0934
AAGTCGGC	0.295
ACCAGTCG	0.1

Sequence	PBM E-score
AATTTACG	0.222
ATCGTGTC	0.129
CAGAGAAA	-0.239
AGGCGAAT	-0.141
GGTACGAA	0.0872
GCTCACAC	-0.119
ATGCTGGG	-0.0836
GAGATGCA	-0.115
CGCTTGAA	0.126
CAATCCCA	-0.223
ATACATGG	-0.155
ATCAGAGG	0.0307
ATTAATGA	0.0675
ACGTGAGG	-0.0575
AAACAATC	-0.194
CAGCGGAC	0.332
AAGACAAA	-0.115
CACTAAAG	-0.0561
CTTTGATC	-0.079
TAAAGGTA	0.0345
ATTACAAC	0.046
ATACCTCA	-0.0977
